This is an account of results in paper PMC4336329 (PLoS ONE, 2015).

Structures are written as SMILES. The campaign covered roughly 310,000 compounds. About 14,000 (4.5%) showed an effect of 50% or more. The effect is printed as a negative number. Some of the results follow.
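Note: peak tail current of the secondary pulse compared with the same well before compound.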

Sequence of human ether-à-go-go-related gene (hERG) potassium channel (Q12809 whole entry, looked up): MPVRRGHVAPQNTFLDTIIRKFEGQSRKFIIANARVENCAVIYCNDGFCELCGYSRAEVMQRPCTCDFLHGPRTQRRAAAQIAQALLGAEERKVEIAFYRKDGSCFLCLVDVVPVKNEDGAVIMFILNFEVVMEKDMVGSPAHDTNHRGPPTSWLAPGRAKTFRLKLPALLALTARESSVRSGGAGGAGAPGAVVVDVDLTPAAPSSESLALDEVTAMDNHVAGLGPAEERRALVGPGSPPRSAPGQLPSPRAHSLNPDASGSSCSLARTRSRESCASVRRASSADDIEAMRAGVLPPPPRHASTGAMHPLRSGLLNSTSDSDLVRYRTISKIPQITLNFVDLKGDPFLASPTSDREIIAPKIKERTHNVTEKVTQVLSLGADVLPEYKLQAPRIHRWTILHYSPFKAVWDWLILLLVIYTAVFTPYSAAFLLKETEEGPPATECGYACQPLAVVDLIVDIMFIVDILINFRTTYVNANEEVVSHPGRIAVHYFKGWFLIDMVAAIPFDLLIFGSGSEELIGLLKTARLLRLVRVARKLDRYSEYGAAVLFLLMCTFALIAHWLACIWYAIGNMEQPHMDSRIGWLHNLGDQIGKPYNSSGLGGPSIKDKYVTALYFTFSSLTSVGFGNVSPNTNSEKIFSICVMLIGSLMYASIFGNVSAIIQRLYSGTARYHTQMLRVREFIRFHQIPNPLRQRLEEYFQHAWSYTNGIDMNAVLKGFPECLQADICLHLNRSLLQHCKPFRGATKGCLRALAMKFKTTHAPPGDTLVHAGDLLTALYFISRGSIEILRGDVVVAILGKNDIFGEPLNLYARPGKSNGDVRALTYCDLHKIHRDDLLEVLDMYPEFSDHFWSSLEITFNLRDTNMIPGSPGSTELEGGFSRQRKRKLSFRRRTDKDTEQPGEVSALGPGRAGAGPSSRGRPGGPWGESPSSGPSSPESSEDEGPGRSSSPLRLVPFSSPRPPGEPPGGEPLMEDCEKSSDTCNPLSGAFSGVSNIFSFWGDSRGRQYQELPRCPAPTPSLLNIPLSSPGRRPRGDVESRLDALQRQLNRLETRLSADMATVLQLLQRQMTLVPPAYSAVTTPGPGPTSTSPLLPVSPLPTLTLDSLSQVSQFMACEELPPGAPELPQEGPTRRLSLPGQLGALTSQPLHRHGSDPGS

The assay has as its target human ether-à-go-go-related gene (hERG) potassium channel (human, UniProt Q12809). Put plainly: primary screen, population patch clamp on CHO cells stably expressing hERG.
Turning to `COc1ccc(N2CCN(CCCNC(=O)Nc3ccccc3)CC2)cc1`, the “hERG current change (%, negative = inhibition) at 10uM” value is on record as -64.5%. On to `CN(CC(=O)Nc1ccccc1Br)C(=O)c1cccnc1Nc1cccc(C(F)(F)F)c1`, for which the “hERG current change (%, negative = inhibition) at 10uM” value turned out to be 25.5%. In the case of `COc1ccccc1N1CC(C(=O)Nc2nc(C)cs2)CC1=O` (centres unmarked) it was -9.32%; in that of `COc1cc(/C=C/c2ccc3cccc(O)c3n2)cc(Br)c1OC`, 15.7%; in that of `CSc1nc(C(C)C)ccc1CNC(=O)CC(C)c1ccccc1` (centres unmarked), 6.46%. With `C=CCN1C(=NC(=O)CCCC(=O)O)SC2CS(=O)(=O)CC21` (centres unmarked) the figure was -6.11%. Turning to `CCCN1CCC(NC(=O)Cc2ccccc2OC)CC1`, the “hERG current change (%, negative = inhibition) at 10uM” value is recorded as -3.66%. In the case of `O=C(NNC1=C(C(=O)C(F)(F)F)CCC1)c1cccc(Cl)c1` it was 7.77%; in that of `CC1=CC(C)(C)Nc2ccc(Cc3ccc4c(c3)C(C)=CC(C)(C)N4)cc21`, 13.9%. With `O=C(Cn1c(=O)c2c(ncn2Cc2ccccc2)n(Cc2ccccc2)c1=O)NC1CC1` the figure was 10.8%; with `CCCCn1nc(C(=O)Nc2c(C)n(C)n(-c3ccccc3)c2=O)c2ccccc2c1=O`, -17.9%. In the case of `Cc1ccc(C(=O)NCC(=O)NC2CCCC2)cc1` it was 29.2%. For the compound `O=C(CSc1nnc(SCc2ccccc2)s1)N/N=C/C=C\c1ccco1`, the “hERG current change (%, negative = inhibition) at 10uM” value is reported as 9.17%. In the case of `O=C(CSc1nc2ccccc2s1)Nc1cc(S(=O)(=O)N2CCOCC2)ccc1Cl` it was -26.2%. In the case of `O=C(CN1CCN(c2ccc(Cl)cc2)CC1)NCc1ccccc1` it was -51.3%.

Regarding `Cc1ccc(C)c(SCC(=O)Nc2cccnc2Cl)c1`, the “hERG current change (%, negative = inhibition) at 10uM” value turned out to be 0.545%.

Consider `COc1cc(/C=C/C(O)=C/C(=O)/C=C/c2ccc(O)cc2)ccc1O`, for which the “hERG current change (%, negative = inhibition) at 10uM” value is listed as 18.9%.

Consider `CCOc1ccc(CCNC(=O)CS(=O)Cc2nc(-c3ccccc3C)oc2C)cc1OCC` (centres unmarked), for which the “hERG current change (%, negative = inhibition) at 10uM” value was 9.37%. In the case of `CCOc1cccc(-c2csc(C3COc4ccccc4O3)n2)c1.Cl` (centres unmarked) it was 6.57%; in that of `O=C(Cn1c(=O)n(CCC(=O)N2CCCCC2)c(=O)c2sccc21)NCc1ccccc1`, 5.68%; in that of `Cc1cccc(C(=O)NCCC(=O)NCc2ccccc2F)c1`, -0.878%. In the case of `O=C(CN1C(=O)NC2(CCCC2)C1=O)Nc1cc(Cl)ccc1N1CCCCC1` it was -1.33%.

With `CCC(C)NC(=O)CSc1n[nH]c(-c2cc(Cl)ccc2OC)n1` (centres unmarked), the “hERG current change (%, negative = inhibition) at 10uM” value is recorded as -5.15%. With `N#CCN1CCC/C1=C\[N+](=O)[O-]`, the “hERG current change (%, negative = inhibition) at 10uM” value is 24%. In the case of `Cn1c(NC(=O)c2ccccc2)nc2ccccc21` it was 5.2%; in that of `COCCn1c(SCC(=O)NC2CCCC2)nnc1-c1ccco1`, 9.84%. In the case of `Cc1ccoc1C(=O)Nc1ccc2ccccc2c1` it was 0.232%. In the case of `Cc1ccc(C)c(-c2nnc(NC(=O)CCS(=O)(=O)c3ccccc3)o2)c1` it was -28.4%; in that of `CCCC(C)NC(=O)Cc1ccc(Br)cc1` (centres unmarked), 8.89%; in that of `Cc1cc(NC(=S)N(CCN2CCOCC2)Cc2ccccc2F)ccc1Cl`, 24.1%.

Regarding `Cl.Clc1ccc(SCCOCCN2CCc3ccccc3C2)cc1`, the “hERG current change (%, negative = inhibition) at 10uM” value is given as -53.7%. With `O=[N+]([O-])c1ccc(-[n+]2nc(-c3ccccc3)nn2-c2ccccc2)cc1.[Br-]` the figure was 17.1%; with `Cc1ccc(-n2ncc3c(N4CCC(C(N)=O)CC4)ncnc32)c(C)c1`, -10.5%. With `S=C1NCCNC(=S)NCCOCCOCCN1` the figure was 20.8%. In the case of `Cc1ccc(NC(=O)CNC(=O)c2cccs2)cc1S(=O)(=O)Nc1ccc(Cl)cc1` it was -8.41%; in that of `O=C1/C(=C/c2cccnc2)N=C2CCCCCN12`, 14.1%. On to `CS(=O)(=O)c1ccc(Cl)c(NC(=O)COC(=O)CNC(=O)c2ccc(Br)o2)c1`, for which the “hERG current change (%, negative = inhibition) at 10uM” value was -4.77%.

As to `COc1ccc(S(=O)(=O)N2CCC(O)(c3cccnc3)CC2)cc1OC`, the “hERG current change (%, negative = inhibition) at 10uM” value is on record as 7.14%. With `O=C(Nc1cccc(O)c1)c1ccccc1[N+](=O)[O-]` the figure was 27.7%; with `COc1ccccc1C(=O)NC(=S)Nc1ccc(N2CCOCC2)c(Cl)c1`, 13.1%; with `CCOC(=O)C1=C(C)NC(=S)N(C(C)=O)C1c1ccc(Cl)cc1` (centres unmarked), 9.12%. In the case of `O=C(CCN1CCC(c2cccs2)=N1)c1cccs1` it was 0.436%; in that of `Cc1c(Cl)cnc(NC(=O)COC(=O)c2ccncc2)c1Cl`, 6.64%; in that of `O=C(Cn1cnc2ccccc21)N/N=C/c1ccc([N+](=O)[O-])cc1`, -1.88%. With `Cc1cccc(N(CC(N)=O)C2SC(=O)N(c3ccccc3)C2=O)c1` (centres unmarked) the figure was 11.6%; with `CCNC(=O)C(=O)N/N=C/c1cc([N+](=O)[O-])ccc1O`, 4.32%; with `O=C(Nc1ccccc1C(F)(F)F)C1CCN(C(=O)c2cccs2)CC1`, 10.5%. For `O=C(Nc1ccc(F)c(Cl)c1)c1ccc2c(c1)OCO2`, the “hERG current change (%, negative = inhibition) at 10uM” value came out at 11.3%. Regarding `O=C(Nc1ccc(COc2ccccc2)cc1)Oc1ccccc1N1CCOCC1`, the “hERG current change (%, negative = inhibition) at 10uM” value was 20%. In the case of `COc1cccc(CC2(CO)CCCN(Cc3sc(N4CCCC4)nc3Cl)C2)c1` (centres unmarked) it was -27.2%. In the case of `COc1ccc(NC(=O)Nc2nnc(-c3cccs3)s2)cc1` it was -5.26%; in that of `Cc1ccc2sc(C)[n+](CCC(C)S(=O)(=O)[O-])c2c1` (centres unmarked), 3.57%; in that of `CN1C(=O)C(=Cc2ccc(-c3cccc(Cl)c3)o2)C(=O)N(C)C1=O`, 10.2%. In the case of `CCC(C(=O)Nc1ccc2c(c1)OCCO2)n1nnc2ccccc2c1=O` (centres unmarked) it was 7.68%; in that of `Cn1c(CNC(=O)CNC(=O)c2ccccc2)cc(=O)n(C)c1=O`, 13.3%; in that of `CCN1C(c2ccccc2)C(C)C(=O)C(C)C1c1ccccc1` (centres unmarked), -3.9%. In the case of `COc1ccc(N(C(=O)c2ccccc2OC)C2C=CS(=O)(=O)C2)c(OC)c1` (centres unmarked), the “hERG current change (%, negative = inhibition) at 10uM” value came to 2.26%. With `CC(C)C(C(=O)NC1CCCCC1)N(CC1CCCO1)C(=O)CNS(=O)(=O)c1ccc(F)cc1` (centres unmarked) the figure was -7.17%. `Cc1ccccc1N1C(=O)CN(Cc2sccc2C)C1=S`: the “hERG current change (%, negative = inhibition) at 10uM” value is -2.01%. With `CCOC(=O)c1cnc(-c2ccc(C(F)(F)F)cn2)[nH]c1=O` the figure was 5.62%; with `COc1ccc(C(=O)OC(C)C(=O)NC2CCCc3ccccc32)cc1OC` (centres unmarked), -13.8%; with `Cc1cccc(NC(=O)NCc2cccnc2)c1C`, -35.9%. With `CC(C)c1ccc(NC2CCCN(C(=O)c3ccncc3)C2)cc1` (centres unmarked) the figure was -4.2%; with `COc1ccc(-c2sc3ccc(OC)cc3c2C#CCCO)cc1`, 17%. With `CN(C)S(=O)(=O)N1CCN(S(=O)(=O)c2ccc3ccccc3c2)CC1` the figure was 21.4%. As to `O=c1[nH]cnc(O)c1C(c1ccc(F)cc1)c1c(O)nc[nH]c1=O`, the “hERG current change (%, negative = inhibition) at 10uM” value stood at 18.5%. Take `O=C1CN(C(=O)COc2ccc(F)cc2Br)c2ccccc2N1`: the “hERG current change (%, negative = inhibition) at 10uM” value is given as -29.9%. With `O=C1C(C=NCCCN2CCOCC2)=C(O)c2ccccc21` the figure was 8.08%. In the case of `Cc1cccc(C(=O)OCC(=O)Nc2c(C)n(C)n(-c3ccccc3)c2=O)c1` it was -13%; in that of `CCc1nc2ccc(C(=O)N3CCN(c4cccc(C(F)(F)F)c4)CC3)cc2nc1CC`, -13.5%. Take `CCc1cc2ccc(OC)cc2nc1SCC(=O)NNC(C)=O`: the “hERG current change (%, negative = inhibition) at 10uM” value turned out to be 16.4%.

For the compound `CCCCCCc1cc2cc(-c3nnc(-c4ccccc4OC)o3)c(=O)oc2cc1O`, the “hERG current change (%, negative = inhibition) at 10uM” value turned out to be 1.5%.

As to `COc1ccc(C(=O)NCC(O)COc2ccc(C(C)(C)C)cc2)cc1[N+](=O)[O-]` (centres unmarked), the “hERG current change (%, negative = inhibition) at 10uM” value was found to be 7.66%. For `Cc1c(C(=O)Oc2cc(N)n(S(C)(=O)=O)n2)cccc1[N+](=O)[O-]`, the “hERG current change (%, negative = inhibition) at 10uM” value is recorded as -4.5%.

On to `CCN(C(=O)COC(=O)Cc1ccccc1)c1c(N)n(Cc2ccccc2)c(=O)[nH]c1=O`, for which the “hERG current change (%, negative = inhibition) at 10uM” value worked out at 12.2%. Regarding `O=C(CCc1ccccc1)N1CCN(c2ccccc2F)CC1`, the “hERG current change (%, negative = inhibition) at 10uM” value was 15.9%. With `O=C(CCS(=O)(=O)c1ccc(F)cc1)Nc1nnc(-c2cccs2)o1` the figure was 14.7%. With `Cc1ccc(-c2cc(C(=O)NCCCn3ccnc3)c3cc(Br)ccc3n2)o1` the figure was -73.8%; with `COc1ccc(N(CC(=O)NCc2ccncc2)S(=O)(=O)c2ccccc2[N+](=O)[O-])c(OC)c1`, -36.4%. In the case of `CCOc1cc(-c2ccccc2)nc(N)n1` it was -6.9%. For `O=C(Nc1ccc2c(c1)OCCO2)N1CCN(c2ccccc2)CC1`, the “hERG current change (%, negative = inhibition) at 10uM” value is -19.1%. For the compound `N#CC1=C2SCC(O)(c3ccccc3)N2C(=O)CC1c1ccccc1` (centres unmarked), the “hERG current change (%, negative = inhibition) at 10uM” value is -20.4%. Regarding `CCCC(=O)N(CC(=O)Nc1sc(C)c(C)c1C(N)=O)Cc1ccccc1`, the “hERG current change (%, negative = inhibition) at 10uM” value is on record as -45.4%. In the case of `COc1ccc(/C=C(\NC(=O)c2ccccc2)C(=O)NCC2CCCO2)cc1` (centres unmarked) it was 2.12%; in that of `Cn1c(=O)c2c(ncn2Cc2cccc(Cl)c2)n(C)c1=O`, -4.72%; in that of `Cc1c(N/C=C/C(=O)C(F)(F)F)c(=O)n(-c2ccccc2)n1C`, 20.2%. In the case of `Cc1nn(-c2ccccc2)c(C)c1NC(=O)COc1ccc2ccccc2c1` it was -19.9%; in that of `Fc1ccc(CN2CCCN(Cc3nc(-c4ccc5c(c4)OCO5)no3)CC2)cc1`, -62.2%.

On to `Cc1ccccc1C#N`, for which the “hERG current change (%, negative = inhibition) at 10uM” value was determined as 16.7%.
